This note sets out measurements from the antibiotic and cytotoxicity screens of Wong et al. (2023).

The other results are listed elsewhere or left out.

For the assay, the system named is HSkMC (human skeletal muscle cells). In words: cytotoxicity call (relative viability < 0.9). The following applies: 10 µM.
Consider `C[C@@H]1CN([C@H](C)CO)C(=O)Cc2cc(NS(=O)(=O)c3cccs3)ccc2O[C@@H]1CN(C)S(=O)(=O)c1cn(C)cn1`, for which the cytotoxicity call was “inactive”. The value for `C[C@H]1CN([C@@H](C)CO)C(=O)c2cc(-c3cccnc3)cnc2O[C@@H]1CN(C)Cc1ccc(-c2ccccc2)cc1` was “inactive”; that for `C[C@H](CO)N1C[C@H](C)[C@@H](CN(C)S(=O)(=O)c2cn(C)cn2)Oc2cc(C#Cc3ccccc3)ccc2S1(=O)=O` was “inactive”.

In the case of `CCCCCCOC(=O)N=C(N)c1ccc(NCc2nc3cc(C(=O)N(CCC(=O)OCC)c4ccccn4)ccc3n2C)cc1.CS(=O)(=O)O`, the cytotoxicity call was “inactive”. Regarding `C[C@H](CO)N1C[C@H](C)[C@H](CN(C)C(=O)Nc2cccc3ccccc23)Oc2ccc(NC(=O)Nc3ccc(F)cc3)cc2CC1=O`, the cytotoxicity call is “inactive”. The entry for `C[C@@H]1CN([C@@H](C)CO)S(=O)(=O)c2ccc(C#Cc3ccc(F)cc3)cc2O[C@@H]1CN(C)CC1CC1` is “inactive”; for `O=C(C1=C(O)C(=O)N(c2nccs2)[C@H]1c1cccc(Oc2ccccc2)c1)c1ccc2c(c1)OCCO2` it is “inactive”.

As to `C[C@H](CO)N1C[C@H](C)[C@@H](CN(C)S(=O)(=O)c2cn(C)cn2)OCc2cnnn2CCCC1=O`, the cytotoxicity call is “inactive”. The value for `COc1ccc(S(=O)(=O)Nc2ccc3c(c2)CC(=O)N([C@@H](C)CO)C[C@@H](C)[C@H](CN(C)S(C)(=O)=O)O3)cc1` was “inactive”; that for `CCCN(C)C[C@H]1OCCCC[C@@H](C)Oc2ccc(NC(=O)CCC(F)(F)F)cc2C(=O)N([C@@H](C)CO)C[C@H]1C` was “inactive”; that for `C[C@@H]1CCCCO[C@H](CN(C)Cc2ccccc2)[C@@H](C)CN([C@H](C)CO)C(=O)c2cc(NC(=O)Nc3ccc(C(F)(F)F)cc3)ccc2O1` was “active”.

In the case of `C[C@@H]1CCCCO[C@H](CN(C)C(=O)CCC(F)(F)F)[C@H](C)CN([C@@H](C)CO)C(=O)c2cc(NC(=O)CCC(F)(F)F)ccc2O1`, the cytotoxicity call is “inactive”. The value for `CC(C)NC(=O)Nc1ccc2c(c1)C(=O)N([C@H](C)CO)C[C@H](C)[C@H](CN(C)CC1CCCCC1)OCCCC[C@@H](C)O2` was “inactive”.

On to `C[C@H](CO)N1C[C@H](C)[C@H](CN(C)C(=O)Nc2ccc3c(c2)OCO3)Oc2c(NS(C)(=O)=O)cccc2C1=O`, for which the cytotoxicity call was “inactive”.

Take `Cc1noc(C)c1NC(=O)N(C)C[C@H]1Oc2c(NC(=O)c3ccc(-c4nccs4)cc3)cccc2C(=O)N([C@@H](C)CO)C[C@@H]1C`: the cytotoxicity call is “inactive”. In the case of `C[C@@H]1CN([C@@H](C)CO)C(=O)c2cc(NC(=O)Nc3ccc(C(F)(F)F)cc3)ccc2O[C@@H](C)CCCCO[C@H]1CN(C)S(=O)(=O)c1ccc(F)cc1`, the cytotoxicity call was “inactive”. The value for `C[C@@H]1CN([C@H](C)CO)C(=O)Cc2cc(NS(C)(=O)=O)ccc2O[C@H]1CN(C)S(=O)(=O)c1cccs1` was “inactive”; that for `O=C(C[C@@H]1C[C@@H]2c3cc(NC(=O)Nc4ccccc4)ccc3O[C@@H]2[C@@H](CO)O1)NCCN1CCCCC1` was “inactive”; that for `C[C@@H]1CCCCO[C@H](CN(C)C(=O)NC2CCCCC2)[C@@H](C)CN([C@H](C)CO)C(=O)c2cc(NC(=O)Nc3ccc(F)cc3)ccc2O1` was “inactive”. The value for `CN(C)CCCC[C@@H]1NC(=O)[C@@H]2C[C@H](C(=O)NCCCCCCNC(=O)CS)[C@H](c3ccc(O)cc3)N2C1=O` was “inactive”; that for `COCC#Cc1cnc2c(c1)C(=O)N([C@H](C)CO)C[C@@H](C)[C@@H](CN(C)C(C)=O)O2` was “inactive”.

Take `Cc1ccc(S(=O)(=O)N(C)C[C@@H]2Oc3ccc(N(C)C)cc3CC(=O)N([C@@H](C)CO)C[C@@H]2C)cc1`: the cytotoxicity call is “inactive”. Turning to `C[C@@H]1CN([C@H](C)CO)C(=O)Cc2cc(NS(=O)(=O)c3cccs3)ccc2O[C@@H]1CN(C)Cc1ccc(-c2ccccc2)cc1`, the cytotoxicity call was “inactive”. The entry for `C[C@@H]1CN([C@H](C)CO)C(=O)c2cc(NS(C)(=O)=O)ccc2O[C@@H](C)CCCCO[C@H]1CN(C)S(=O)(=O)c1cccs1` is “inactive”; for `C[C@H](CO)N1C[C@H](C)[C@@H](CN(C)Cc2ccncc2)Oc2ccc(NS(=O)(=O)c3cn(C)cn3)cc2CC1=O` it is “inactive”; for `C[C@H](CO)N1C[C@H](C)[C@H](CN(C)Cc2ccc(C(=O)Nc3ccccc3N)cc2)Oc2ccc(NC(=O)Cn3cnnn3)cc2C1=O` it is “inactive”. The entry for `CC(C(=O)O)c1ccc2c(c1)CC(=O)c1ccccc1S2` (configuration not stated) is “inactive”.
